Scores whose standard error is large were omitted. The source holds two more conditions with little spread; they are left out. In variant names, del marks residues removed and ins residues inserted between the two positions. For part of these data: How much ogerin was present is not stated here.
B1: GPR68, Q15743 (parent)
chain: MGNITADNSSMSCTIDHTIHQTLAPVVYVTVLVVGFPANCLSLYFGYLQIKARNELGVYLCNLTVADLFYICSLPFWLQYVLQHDNWSHGDLSCQVCGILLYENIYISVGFLCCISVDRYLAVAHPFRFHQFRTLKAAVGVSVVIWAKELLTSIYFLMHEEVIEDENQHRVCFEHYPIQAWQRAINYYRFLVGFLFPICLLLASYQGILRAVRRSHGTQKSRKDQIQRLVLSTVVIFLACFLPYHVLLLVRSVWEASCDFAKGVFNAYHFSLLLTSFNCVADPVLYCFVSETTHRDLARLRGACLAFLTCSRTGRAREAYPLGAPEASGKSGAQGEEPELLTKLHPAFQTPNSPGSGGFPTGRLA

How the values were obtained:
[1] = variants of: B1; assay: cAMP reporter score (Enrich2 score, wild type = 0); higher = more signal; HEK293T, FACS bins
[2] = variants of: B1; assay: surface expression score (Enrich2 score, wild type = 0); higher = more signal; HEK293T, FACS bins

| Variant | cAMP reporter score ([1]; pH 5.5) | cAMP reporter score ([1]; pH 6, modulator: ogerin) | cAMP reporter score ([1]; pH 6.5, modulator: ogerin) | surface expression score [2] | cAMP reporter score ([1]; pH 6) |
| --- | --- | --- | --- | --- | --- |
| A147P | -1.75 | -1.12 | -1.18 | -2.5 | – |
| A147Q | -0.411 | -2.64 | -2.08 | -2.51 | – |
| A147S | 0.174 | 0.301 | 0.872 | -0.241 | -0.31 |
| A147T | -0.511 | -0.002 | 0.029 | 0.198 | -0.586 |
| A147V | 1.35 | 1 | 0.94 | 1.09 | – |
| A147Y | -1 | – | -1.57 | -2.93 | – |
| A147_E149del | -2 | -1.66 | -0.204 | -2.67 | -1.13 |
| A147_K148insG | -0.771 | -0.973 | -0.477 | -2.88 | -0.765 |
| A147_K148insGS | -1.43 | -1.66 | -1.29 | -2.55 | -1.07 |
| K148A | 1.14 | 1.45 | 3.02 | 2.01 | 1.51 |
| K148C | 0.161 | 1.19 | 1.48 | 1.19 | 1.69 |
| K148D | 0.171 | 0.048 | 0.396 | – | -0.495 |
| K148E | 0.464 | 1.2 | 0.02 | -0.864 | 0.601 |
| K148F | 0.508 | 0.443 | 0.034 | 1.5 | -1.1 |
| K148G | -0.356 | 0.571 | 1.75 | 0.922 | -0.301 |
| K148H | 1.08 | 0.935 | -0.152 | 2.59 | 1.63 |
| K148I | 0.516 | 1.1 | 2.8 | 1.4 | – |
| K148L | 0.44 | 0.935 | 1.52 | 1.35 | -0.286 |
| K148M | -0.879 | -0.469 | 0.464 | -0.394 | 0.064 |
| K148N | 1.12 | 0.836 | 0.051 | 1.31 | 0.61 |
| K148P | -0.295 | -0.197 | -0.368 | -1.65 | -1.19 |

| Variant | cAMP reporter score ([1]; pH 5.5) | cAMP reporter score ([1]; pH 6, modulator: ogerin) | cAMP reporter score ([1]; pH 6.5, modulator: ogerin) | surface expression score [2] | cAMP reporter score ([1]; pH 6) |
| --- | --- | --- | --- | --- | --- |
| K148Q | -1.28 | 0.634 | 0.612 | 0.188 | – |
| K148R | -0.295 | -1.33 | -0.913 | -2.82 | -0.984 |
| K148S | 0.069 | 1.14 | 1.52 | 0.56 | 1.19 |
| K148T | 2.2 | 1.93 | 5.15 | 3.47 | 2.58 |
| K148V | 0.815 | 1.26 | 1.63 | 1.63 | 1.01 |
| K148W | -1.61 | -1.18 | -0.746 | 0.583 | -0.93 |
| K148Y | -1.61 | -0.792 | -0.882 | 1.73 | -1.28 |
| K148_L150del | -1.73 | -1.91 | -1.52 | -2.52 | -1.05 |
| K148del | -1.5 | -1.86 | -1.16 | -1.81 | -1.27 |
| E149_L150insGS | -2.37 | – | -1.31 | -1.66 | – |
| E149_L150insGSG | -2.39 | – | -2 | -3.33 | – |
| L150_L151del | -1.7 | -1.89 | -1.47 | -2.21 | -1.5 |
| L150_L151insG | -0.124 | – | -1.49 | -0.83 | -2.02 |
| L150_T152del | -1.54 | -1.62 | -1.31 | -2.04 | -0.96 |
| L151_S153del | -1.32 | -1.74 | -1.26 | -2.11 | -0.455 |
| L151_T152insGS | -2.04 | -2.07 | -0.869 | -2.7 | -1.01 |
| T152_S153insGS | -1.56 | – | -1.17 | 0.716 | -0.405 |
| S153A | -0.696 | -1.54 | -0.802 | 0.54 | -1.22 |
| S153C | 0.962 | 1.71 | -0.469 | -0.021 | -0.22 |
| S153D | -0.312 | -1.18 | 1.29 | – | 3.18 |
| S153E | 0.226 | -0.916 | -0.591 | -0.848 | -1.04 |

| Variant | cAMP reporter score ([1]; pH 5.5) | cAMP reporter score ([1]; pH 6, modulator: ogerin) | cAMP reporter score ([1]; pH 6.5, modulator: ogerin) | surface expression score [2] | cAMP reporter score ([1]; pH 6) |
| --- | --- | --- | --- | --- | --- |
| S153F | 1.6 | -0.954 | -0.965 | -0.07 | 1.32 |
| S153G | 0.221 | -0.104 | 0.506 | 0.661 | – |
| S153H | -0.165 | -1.08 | – | -2.45 | – |
| S153I | 1.41 | -0.961 | -0.238 | 1.57 | 0.449 |
| S153K | 0.424 | -1.28 | -0.377 | -2.85 | -0.235 |
| S153L | -0.33 | -0.659 | -1.11 | 1.57 | -0.551 |
| S153M | 0.647 | -0.394 | -1.21 | 1.52 | -0.153 |
| S153N | 0.166 | 1.22 | – | -0.393 | 1.97 |
| S153P | -0.602 | -0.883 | -1.13 | -0.989 | -0.468 |
| S153Q | 0.444 | -0.997 | -1.75 | 0.54 | -0.786 |
| S153R | -1.39 | -1.38 | -1.43 | -0.925 | -1.3 |
| S153T | -0.583 | -1.38 | -0.788 | 1.05 | -1.14 |
| S153V | 0.665 | -1.04 | -0.574 | 2.65 | -0.892 |
| S153W | 1.28 | 1.59 | 2.63 | -0.283 | – |
| S153Y | 0.351 | -0.713 | -0.54 | – | 1.49 |
| S153del | -0.305 | -1.18 | -0.963 | 0.362 | -0.933 |
| I154_F156del | -0.702 | -0.995 | 0.434 | -3.02 | -1.64 |
| I154_Y155insGS | -1.87 | -1.39 | -1.28 | -0.487 | -1.55 |
| I154_Y155insGSG | -2 | -1.32 | -1.93 | -1.67 | -0.836 |
| I154del | -0.888 | -1.92 | -2.08 | -1.84 | -1.57 |
| Y155C | -0.221 | -0.788 | -1.1 | -0.809 | -0.145 |

Source: the GPR68 mutational scans of Howard et al. (2025)
